# The list shows a part of the results.
# B1: ConA (Canavalia ensiformis), P02866 (protein)
# chain: MAISKKSSLFLPIFTFITMFLMVVNKVSSSTHETNALHFMFNQFSKDQKDLILQGDATTGTDGNLELTRVSSNGSPQGSSVGRALFYAPVHIWESSAVVASFEATFTFLIKSPDSHPADGIAFFISNIDSSIPSGSTGRLLGLFPDANVIRNSTTIDFNAAYNADTIVAVELDTYPNTDIGDPSYPHIGIDIKSVRSKKTAKWNMQNGKVGTAHIIYNSVDKRLSAVVSYPNADSATVSYDVDLDNVLPEWVRVGLSASTGLYKETNTILSWSFTSKLKSNEIPDIATVV
# Key:
# Assay in all cases: glycan array binding signal (z-score within array); higher = stronger binding
# Details in all cases: glycan notation: IUPAC condensed, linker removed
# Gal(a1-2)Gal = biological target: Gal(a1-2)Gal
# Method in brief: (§1)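 The Consortium for Functional Glycomics database supplied 3228 glycan arrays, of which those lacking an available protein sequence were dropped. The binding signal, a within-array Z-score, was averaged across arrays of the same protein sequence and across linkers. Negative scores can be read as non-binding.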
# Gal(a1-3)Gal = biological target: Gal(a1-3)Gal
# Method in brief: as §1
# Gal(a1-3)Gal(b1-3)GlcNAc = biological target: Gal(a1-3)Gal(b1-3)GlcNAc
# Method in brief: as §1
# [1] = biological target: Gal(a1-3)Gal(b1-3)GlcNAc(b1-2)Man(a1-3)[Gal(a1-3)Gal(b1-3)GlcNAc(b1-2)Man(a1-6)]Man(b1-4)GlcNAc(b1-4)GlcNAc
# Method in brief: as §1
# [2] = biological target: Gal(a1-3)Gal(b1-3)GlcNAc(b1-3)GalNAc
# Method in brief: as §1
# [3] = biological target: Gal(a1-3)Gal(b1-3)[Fuc(a1-4)]GlcNAc(b1-2)Man(a1-3)[Gal(a1-3)Gal(b1-3)[Fuc(a1-4)]GlcNAc(b1-2)Man(a1-6)]Man(b1-4)GlcNAc(b1-4)GlcNAc
# Method in brief: as §1
# Gal(a1-3)Gal(b1-4)Glc = biological target: Gal(a1-3)Gal(b1-4)Glc
# Method in brief: as §1
# Gal(a1-3)Gal(b1-4)GlcNAc = biological target: Gal(a1-3)Gal(b1-4)GlcNAc
# Method in brief: as §1
# [4] = biological target: Gal(a1-3)Gal(b1-4)GlcNAc(b1-3)GalNAc
# Method in brief: as §1
# [5] = biological target: Gal(a1-3)Gal(b1-4)[Fuc(a1-3)]GlcNAc
# Method in brief: as §1
# [6] = biological target: Gal(a1-3)Gal(b1-4)[Fuc(a1-3)]GlcNAc(b1-2)Man(a1-3)[Gal(a1-3)Gal(b1-4)[Fuc(a1-3)]GlcNAc(b1-2)Man(a1-6)]Man(b1-4)GlcNAc(b1-4)GlcNAc
# Method in brief: as §1
# Gal(a1-3)GalNAc = biological target: Gal(a1-3)GalNAc
# Method in brief: as §1
# [7] = biological target: Gal(a1-3)[Gal(a1-4)]Gal(b1-4)GlcNAc
# Method in brief: as §1
# [8] = biological target: Gal(a1-4)Gal(b1-3)GlcNAc(b1-2)Man(a1-3)[Gal(a1-4)Gal(b1-3)GlcNAc(b1-2)Man(a1-6)]Man(b1-4)GlcNAc(b1-4)GlcNAc
# Method in brief: as §1
# Gal(a1-4)Gal(b1-4)Glc = biological target: Gal(a1-4)Gal(b1-4)Glc
# Method in brief: as §1
# Gal(a1-4)Gal(b1-4)GlcNAc = biological target: Gal(a1-4)Gal(b1-4)GlcNAc
# Method in brief: as §1
# [9] = biological target: Gal(a1-4)Gal(b1-4)GlcNAc(b1-2)Man(a1-3)[Gal(a1-4)Gal(b1-4)GlcNAc(b1-2)Man(a1-6)]Man(b1-4)GlcNAc(b1-4)GlcNAc
# Method in brief: as §1
# [10] = biological target: Gal(a1-4)Gal(b1-4)GlcNAc(b1-3)Gal(b1-4)Glc
# Method in brief: as §1
# Gal(a1-4)GlcNAc = biological target: Gal(a1-4)GlcNAc
# Method in brief: as §1
# Gal(a1-6)Glc = biological target: Gal(a1-6)Glc
# Method in brief: as §1
# Gal(b1-2)Gal = biological target: Gal(b1-2)Gal
# Method in brief: as §1
# Gal(b1-3)Gal = biological target: Gal(b1-3)Gal
# Method in brief: as §1
# Gal(b1-3)Gal(b1-4)GlcNAc = biological target: Gal(b1-3)Gal(b1-4)GlcNAc
# Method in brief: as §1
# [11] = biological target: Gal(b1-3)Gal(b1-4)GlcNAc(b1-2)Man(a1-3)[Gal(b1-3)Gal(b1-4)GlcNAc(b1-2)Man(a1-6)]Man(b1-4)GlcNAc(b1-4)GlcNAc
# Method in brief: as §1
# Gal(b1-3)GalNAc = biological target: Gal(b1-3)GalNAc
# Method in brief: as §1
# [12] = biological target: Gal(b1-3)GalNAc(a1-3)[Fuc(a1-2)]Gal(b1-4)Glc
# Method in brief: as §1
# [13] = biological target: Gal(b1-3)GalNAc(a1-3)[Fuc(a1-2)]Gal(b1-4)GlcNAc
# Method in brief: as §1
# [14] = biological target: Gal(b1-3)GalNAc(b1-3)Gal(a1-4)Gal(b1-4)Glc
# Method in brief: as §1
# [15] = biological target: Gal(b1-3)GalNAc(b1-4)Gal(b1-4)Glc
# Method in brief: as §1
# [16] = biological target: Gal(b1-3)GalNAc(b1-4)[Neu5Ac(a2-3)]Gal(b1-4)Glc
# Method in brief: as §1
# Gal(b1-3)GlcNAc = biological target: Gal(b1-3)GlcNAc
# Method in brief: as §1
# [17] = biological target: Gal(b1-3)GlcNAc(a1-6)Gal(b1-4)GlcNAc
# Method in brief: as §1
# [18] = biological target: Gal(b1-3)GlcNAc(b1-2)Man(a1-3)[Gal(b1-3)GlcNAc(b1-2)Man(a1-6)]Man(b1-4)GlcNAc(b1-4)GlcNAc
# Method in brief: as §1
# [19] = biological target: Gal(b1-3)GlcNAc(b1-2)Man(a1-3)[Gal(b1-3)GlcNAc(b1-2)Man(a1-6)]Man(b1-4)GlcNAc(b1-4)[Fuc(a1-6)]GlcNAc
# Method in brief: as §1
# [20] = biological target: Gal(b1-3)GlcNAc(b1-2)[Gal(b1-3)GlcNAc(b1-6)]Man(a1-6)[Gal(b1-3)GlcNAc(b1-2)Man(a1-3)]Man(b1-4)GlcNAc(b1-4)GlcNAc
# Method in brief: as §1
# [21] = biological target: Gal(b1-3)GlcNAc(b1-3)Gal(b1-3)GlcNAc
# Method in brief: as §1
# [22] = biological target: Gal(b1-3)GlcNAc(b1-3)Gal(b1-4)Glc
# Method in brief: as §1
binder,measurement,setting,value
B1,glycan array binding signal (z-score),Gal(a1-2)Gal,-0.281
same,glycan array binding signal (z-score),Gal(a1-3)Gal,-0.255
same,glycan array binding signal (z-score),Gal(a1-3)Gal(b1-3)GlcNAc,-0.281
same,glycan array binding signal (z-score),[1],-0.035
same,glycan array binding signal (z-score),[2],-0.168
same,glycan array binding signal (z-score),[3],-0.024
same,glycan array binding signal (z-score),Gal(a1-3)Gal(b1-4)Glc,-0.229
same,glycan array binding signal (z-score),Gal(a1-3)Gal(b1-4)GlcNAc,-0.247
same,glycan array binding signal (z-score),[4],-0.276
same,glycan array binding signal (z-score),[5],-0.222
same,glycan array binding signal (z-score),[6],-0.227
same,glycan array binding signal (z-score),Gal(a1-3)GalNAc,-0.181
same,glycan array binding signal (z-score),[7],-0.281
same,glycan array binding signal (z-score),[8],0.48
same,glycan array binding signal (z-score),Gal(a1-4)Gal(b1-4)Glc,-0.293
same,glycan array binding signal (z-score),Gal(a1-4)Gal(b1-4)GlcNAc,-0.283
same,glycan array binding signal (z-score),[9],0.321
same,glycan array binding signal (z-score),[10],-0.262
same,glycan array binding signal (z-score),Gal(a1-4)GlcNAc,-0.29
same,glycan array binding signal (z-score),Gal(a1-6)Glc,-0.29
same,glycan array binding signal (z-score),Gal(b1-2)Gal,-0.287
same,glycan array binding signal (z-score),Gal(b1-3)Gal,-0.28
same,glycan array binding signal (z-score),Gal(b1-3)Gal(b1-4)GlcNAc,-0.27
same,glycan array binding signal (z-score),[11],0.087
same,glycan array binding signal (z-score),Gal(b1-3)GalNAc,-0.272
same,glycan array binding signal (z-score),[12],-0.248
same,glycan array binding signal (z-score),[13],-0.247
same,glycan array binding signal (z-score),[14],-0.272
same,glycan array binding signal (z-score),[15],-0.28
same,glycan array binding signal (z-score),[16],-0.24
same,glycan array binding signal (z-score),Gal(b1-3)GlcNAc,-0.295
same,glycan array binding signal (z-score),[17],-0.245
same,glycan array binding signal (z-score),[18],0.916
same,glycan array binding signal (z-score),[19],0.562
same,glycan array binding signal (z-score),[20],-0.189
same,glycan array binding signal (z-score),[21],-0.197
same,glycan array binding signal (z-score),[22],-0.299
